# Source: article PMC12136788
# The other results are listed elsewhere or left out.
# B1: chr11:95167508:95167609:-|3pUTR|ENSG00000149212|unk|total|mutant (ssRNA)
# RNA: GGGAGUUCUACAGUCCGACGAUCAAUAAUGGAGACUGAAUGAGGCGGUUUGUAUUAAAUUAUAUGCCAUGAAGUGUUCAUUUCCGCUUUAACCUAAUUAUGACUGUACCACCAUGAAGUACAGAAUGAAAAAUUAUAUAUAUGCAACAGAGGAUUGAGCAUCA
# B2: chr16:88813726:88813828:-|3pUTR|ENSG00000141012|unk|FALSE|unique (ssRNA)
# RNA: GGGAGUUCUACAGUCCGACGAUCUCCCUGGACGCUAAUUAUGAGGGAGGCGUGUAGCUUCUUAUCAUUGUAACUAUGUUAUUUAGAAAUAAAACGGGAGGCAGGUUUGCCUAAUUCCCAGCUUGAUUUUUCUCUUGGCUGAGUCAACAGAGGAUUGAGCAUCA
# B3: chr5:122065063:122065164:-|3pUTR|ENSG00000113083|msi1|FALSE|unique (ssRNA)
# RNA: GGGAGUUCUACAGUCCGACGAUCUCAACUGGCGGAUAUAGCGGUACAUAUGAUCCUUAGCCACCAGGGCACAAGCUUACCAGUAGACAAUACAGACAGAGCUUUUGUUGAGCUGUAACUGAGCUAUGGAAUAGCUUCUUUGAUCAACAGAGGAUUGAGCAUCA
# B4: chr6:21593967:21594078:+|5pUTR|ENSG00000124766|unk|FALSE|bound_elsewhere (ssRNA)
# RNA: GGGAGUUCUACAGUCCGACGAUCUUAGUGCCGAUUCCGCCCACAGAGAGUCCUGGAGCCACAGUCUUUUUUGCUUUGCAUUGUAGGAGAGGGACUAAGUGCUAGAGACUAUGUCGCUUUCCUGAGCUACCGAGAGCGCUCGUGCAACAGAGGAUUGAGCAUCA
# B5: chr10:16593140:16593241:-|3pUTR|ENSG00000148484|unk|total|mutant (ssRNA)
# RNA: GGGAGUUCUACAGUCCGACGAUCUUAUUUUUCUUUUCACUCUCUUUCUAAUGCUUCCCACCUUACCUUUCCGAUUCUUUUGCCCGGUGGGAGAUUGUUAUAAGGUCUUUAAACCAUUUCCAUUUGUUUCUUUAACAUUACCAACAACAGAGGAUUGAGCAUCA
# B6: chr4:175634378:175634624:-|3pUTR|ENSG00000150625|msi1|total|mutant (ssRNA)
# RNA: GGGAGUUCUACAGUCCGACGAUCUUUCUUAUGUUUUGAAAAGAAAACCGCUUUUUAUACUUUUCCGUUUUGAUUUCGGUAACCCGUUUAACUACAGGUAACCUUCAAAGGGACCAUUGUACAUUAUGAACAACCGACCGAGAUCAACAGAGGAUUGAGCAUCA
# B7: chr2:85327303:85327429:-|CDS|ENSG00000152291|msi1|FALSE|bound_elsewhere (ssRNA)
# RNA: GGGAGUUCUACAGUCCGACGAUCACCCAAAAAGGCAGCACUAGCAAGUCGGGUUCGGAGGCGCAGACCACAAAAGACAGCACUAGUAAGUCGCAUCCGGAGCUGCAGACUCCAAAAGACAGCACUGGCAAAUCGGGUGCGGAGCAACAGAGGAUUGAGCAUCA
# B8: chr10:30313878:30313980:-|CDS|ENSG00000107951|unk|FALSE|unique (ssRNA)
# RNA: GGGAGUUCUACAGUCCGACGAUCUGUUUUUAUAUUUAAGCCCUUCAUGUACUUACUCAUUUUUUCUUCUGUGUAAUAAUCUAUAGGGAAGGGAGCAAAACAAACCUGAUUCUUCUCCUCUGUACAUUCAGAAUCCAUUUGAAACAACAGAGGAUUGAGCAUCA
# B9: chr1:77949188:77949289:-|CDS|ENSG00000162613|unk|total|mutant (ssRNA)
# RNA: GGGAGUUCUACAGUCCGACGAUCUUCAAAGGUCAGGCAGUUCCUGCUCCGACUGGGGCUCCUCCAGGUGGUCAGCCAGAUUACCGUGCAGCCUGGGCUGAGUAUUACCGACAACAAGCAGCCUAUUAUGCCCAGACAAGUCCCCAACAGAGGAUUGAGCAUCA
# B10: chr8:23572142:23572248:+|3pUTR|ENSG00000147454|unk|total|mutant (ssRNA)
# RNA: GGGAGUUCUACAGUCCGACGAUCCCUCCCUGGGCAGAAUGCCGCUUUUCUGCUUCACUGUGGCAGCCUCCUCCCUGGAUCCUCCGAUCCCAGAGGAGGGAAGAAAAUUUGCAGUGACUGAAAACAGUAAAAAAAAAAAAAAAACAACAGAGGAUUGAGCAUCA
# B11: chr10:113876644:113876745:+|CDS|ENSG00000196865|msi1|FALSE|bound_elsewhere (ssRNA)
# RNA: GGGAGUUCUACAGUCCGACGAUCGGUUAAUGAUGCAGAUGCCAGCCUUUGGCAAGAACUAGAAGUUUCCUGCUGGCCAACUCUAGUCAUACUUGGACCUCGUGGAAACAUGUUGUUUUCUUUGAUUGGAGAGGGACACAAAGACAACAGAGGAUUGAGCAUCA
# B12: chr12:39370042:39370220:-|CDS|ENSG00000139116|unk|FALSE|unique (ssRNA)
# RNA: GGGAGUUCUACAGUCCGACGAUCUACUUUUGACUAUGUAUUUGACAUUGACUCCCAGCAAGAGCAGAUCUACAUUCAAUGUAUAGAAAAACUAAUUGAAGGUUGCUUUGAAGGAUACAAUGCUACAGUUUUUGCUUAUGGACACAACAGAGGAUUGAGCAUCA
# B13: ENSG00000099904:stop:overlap|stop_codon|ENSG00000099904|stop_codon|NA|stop_codon (ssRNA)
# RNA: GGGAGUUCUACAGUCCGACGAUCGGGCCAUGUGCCGCCUGCACUUGGCUGCCUCCAGUCUUUUCCCCAGCCUCUCGGGGCCCUAGCAGGAUGACAAGUAGGCGGCUCUGGGGCCCAGGACAGCCCAGCUGGGGACCCAGGAGGCAACAGAGGAUUGAGCAUCA
# B14: chr2:159967538:159967678:-|CDS|ENSG00000153246|control|control|control (ssRNA)
# RNA: GGGAGUUCUACAGUCCGACGAUCUAGUGAAGAGUGUUCAGUUUCUAUGCCUAGUAUCUGUAAGCGAAAAAAGGUUUGGCUCAUAGAGAAAAAGAAAGAUACACCAAAACAACAUGGAACGUGUCCCAAAGGAUGGCUAUAUUUCAACAGAGGAUUGAGCAUCA
# B15: chr19:19111484:19111585:+|3pUTR|ENSG00000181035|msi1|FALSE|unique (ssRNA)
# RNA: GGGAGUUCUACAGUCCGACGAUCAGCCUCAUGUCUAUCCUAGACCCUGCAAGCAGCUGGGUCCCCAAGAGUGCAUCUCCCCCUAGAGUUGCCUGCCCAUGCCCACCUGCUUUGUAACCUUCCCAGGAGAUUCAUGCUUGCUCUCAACAGAGGAUUGAGCAUCA
# B16: chr1:203709306:203709407:+|CDS|ENSG00000058668|msi1|total|mutant (ssRNA)
# RNA: GGGAGUUCUACAGUCCGACGAUCUCCAGAGAAGGAGGGAGGCCUGCCUCGGCAGGUGGGCAACAAGACCGAGUGUGCUCUGCCCGGCUUUGUCACAGAUCUGAAGCAGGAUUAUCAGGCUGUGCGUAAUGAAGUGCCCGAGGACAACAGAGGAUUGAGCAUCA
# B17: chr6:149379354:149379455:+|CDS|ENSG00000055208|msi1|total|mutant (ssRNA)
# RNA: GGGAGUUCUACAGUCCGACGAUCAGGGGUGGUGUCCCCUACCUUUGAACUUACAAAUCUUCUUAAUCAUCCUGAUCAUUAUGCCGAAACCGAGAAUAUUCAGCACCUCACGGACCCUACAUCCGCACAUGUGGACCGAAUAAGCAACAGAGGAUUGAGCAUCA
# B18: chr13:66631209:66631411:-|CDS|ENSG00000184226|control|control|control (ssRNA)
# RNA: GGGAGUUCUACAGUCCGACGAUCCCUGAUGGCUCCCAGGAAAGCUGCAGUGACAGUGGUCUAGGAGACCAUGAGCCGGUGGGUAGUGGAACCCUGAUCUCACACCCUCUUCCUCUGGUUCAGCCACAGGACGAAUUCUAUGACCAACAGAGGAUUGAGCAUCA
# B19: chr12:3284911:3285012:+|3pUTR|ENSG00000011105|msi1|FALSE|unique (ssRNA)
# RNA: GGGAGUUCUACAGUCCGACGAUCGGAGGACAGAACCGUUGGCAUUAUCAGGAUUCGUGUUUUGUGGGGGUGGGAGUGGAGAGUAGGGUGGUCUUGUGAGUUGUGCAGGGUGAAGACCGCUUCCCUGAGACAGGGGCAGUGGUGCAACAGAGGAUUGAGCAUCA
# B20: ENSG00000148248:stop:overlap|stop_codon|ENSG00000148248|stop_codon|NA|stop_codon (ssRNA)
# RNA: GGGAGUUCUACAGUCCGACGAUCUGAUGUUCAUGACCCUCCUUCACUUUGACGCCAGCUUCUUUUCUCAGCCGUCUCAGCAGUAGCUACAUCAGCCUGAUGGAUAGAGACUUCAUGACGUGCAGCAGCUGGAACUUUUGUUUACAACAGAGGAUUGAGCAUCA
# B21: ENSG00000130560:stop:overlap|stop_codon|ENSG00000130560|stop_codon|NA|stop_codon (ssRNA)
# RNA: GGGAGUUCUACAGUCCGACGAUCCAGAAACGGGGCCUGUCAUGCUGCAGAUCUCUAGAAUCUUCCAGACACUAAAUCGCACGUAGGUGGCGUUGUUCCACUCGGCUAUCAGGCCACAGCAGCCCCCUGGUGCGGCCCGAGACCCAACAGAGGAUUGAGCAUCA
# B22: chr17:49707729:49707944:-|CDS|ENSG00000121073|control|control|control (ssRNA)
# RNA: GGGAGUUCUACAGUCCGACGAUCCUGCCGGUGCCGGUUGUGAGCGGGUCUCCAGUCGGCUCCUCUGGGCGUCUCAUGGCCUCUAGCAGCUCCCUGGUGCCCGACCGGCUGCGCCUGCCGCUCUGCUUCCUGGGUGUCUUUGUCCAACAGAGGAUUGAGCAUCA
# Target: MSI1 full-length (mouse, UniProt Q61474 1-362)
# Assay: nsRBNS (natural sequence RNA bind-n-seq); RBNS binding buffer (assumed for nsRBNS): 25 mM Tris pH 7.5, 150 mM KCl, 3 mM MgCl2, 0.01% Triton X-100, 500 ug/ml BSA, 20 U/ml SUPERase-In, 4 C; UNK is unkempt and MSI1 is Musashi-1; names of the RNAs are library labels; protein concentration not given here; high values mean tight binding
# Sequence of UniProt Q61474 (Q61474 whole entry): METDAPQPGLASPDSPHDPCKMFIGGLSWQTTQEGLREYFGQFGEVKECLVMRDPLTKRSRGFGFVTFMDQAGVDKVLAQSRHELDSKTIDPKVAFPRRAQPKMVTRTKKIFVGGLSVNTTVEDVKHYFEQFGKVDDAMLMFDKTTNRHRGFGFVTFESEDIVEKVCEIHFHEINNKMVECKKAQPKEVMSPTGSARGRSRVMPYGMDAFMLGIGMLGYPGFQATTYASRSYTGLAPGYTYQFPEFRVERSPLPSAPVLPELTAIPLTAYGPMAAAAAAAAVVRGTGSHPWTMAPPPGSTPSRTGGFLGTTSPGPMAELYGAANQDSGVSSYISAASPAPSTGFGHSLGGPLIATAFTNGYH
row,Binder,binding signal
1,B1,0.609 enrichment R
2,B2,1.75 enrichment R
3,B3,0.688 enrichment R
4,B4,0.616 enrichment R
5,B5,1.23 enrichment R
6,B6,0.178 enrichment R
7,B7,0.748 enrichment R
8,B8,1.04 enrichment R
9,B9,0.427 enrichment R
10,B10,0.358 enrichment R
11,B11,0.522 enrichment R
12,B12,1.19 enrichment R
13,B13,1.02 enrichment R
14,B14,0.633 enrichment R
15,B15,0.61 enrichment R
16,B16,0.402 enrichment R
17,B17,0.36 enrichment R
18,B18,0.365 enrichment R
19,B19,0.736 enrichment R
20,B20,0.533 enrichment R
21,B21,0.329 enrichment R
22,B22,0.322 enrichment R
